PubChem BioAssay AID686970 (National Center for Advancing Translational Sciences (NCATS), 2013)
Out of some 360,000 compounds screened, about 6,000 (1.7%) were called active. Inconclusive results, whose numbers are uncertain, are shown with a selection of clear calls. Calls come from the whole dose curve; as a rule, active = well fitted cell-killing curve with a large enough effect; inconclusive = small, poorly fitted or top-dose-only effect, or effect the other way; inactive = flat fitted curve, though single readings scatter. No potency is given beside an inconclusive call; the fits are too rough.
Potency is the fitted concentration of half-maximal effect; tags give direction and shape of the fitted curve.

Assay: qHTS for induction of synthetic lethality in tumor cells producing 2HG: qHTS for the HT-1080-NT fibrosarcoma cell line;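 note: NT is the 2HG producing partner of a matched IDH1 knockdown line; nearly all actives have a fitted effect of over 55% in size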;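 for activity, negative = less viability: 0% = DMSO-treated cells and -100% = media-only wells without cells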
Settings: HT-1080-NT fibrosarcoma viability, CellTiter-Glo ATP luminescence, 48 h; activity, negative = less viability: at 46.1 µM (top of the series) unless noted
Procedure, shortened: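 HT-1080-NT; 750 cells/well; 5% FBS RPMI; 48 h compound, 37 degrees C; CellTiter-Glo luminescence; curve fitting and curve-class assignment.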
In the case of `COc1cccc(/C=N/NC(=O)CCn2c3ccccc3c3ccccc32)c1`, the Potency was “inactive”. With `Cc1cccc(Cc2cnc(NC(=O)C3=NCCN3)s2)c1` the activity, negative = less viability was inconclusive: -31.2% [cytotoxic]. For `O=S(=O)(NNc1ncc(C(F)(F)F)cc1Cl)c1ccccc1`, the Potency was inconclusive [cytotoxic, single point]. In the case of `COc1ccc(Nc2nc(Nc3ccc(OC)cc3)nc(-n3[nH]c(=O)c(C)c3C)n2)cc1`, the Potency was inconclusive [cytotoxic, single point]. In the case of `S=c1nc(Cc2ccccc2)[nH]c2ccccc12`, the Potency was “inactive”. With `COc1ccc(C=NCCC2(O)CC(C)N(C)CC2C)cc1` (stereo not drawn) the Potency was “inactive”. In the case of `COc1ccc(C(C(=O)NC2CCCCC2)N(C(=O)CCl)c2ccccc2Cl)cc1` (stereo not drawn), the Potency was active: 18.4 µM. With `CCOC(=O)c1c(-n2cnnn2)sc2c1CCCC2` the Potency was “inactive”. For `Cc1ccc(OC(=O)c2ccc([N+](=O)[O-])cc2Cl)cn1`, the Potency was “inactive”. In the case of `CCN(CC)C(=O)c1oc2ccc(S(=O)(=O)N3CC(C)CC(C)C3)cc2c1C` (stereo not drawn), the Potency was inconclusive [cytotoxic, single point]. With `O=C(Nc1cc(Cl)cc(Cl)c1)N1CCCN(Cc2ccccc2)CC1` the Potency was active: 20.6 µM. For `COc1cccc(NC(=O)CCSc2ccc3ccccc3n2)c1`, the activity, negative = less viability was inconclusive: 35%. For `O=C(CNC(=S)N(Cc1ccccc1)Cc1ccccc1F)NCCc1ccccc1`, the Potency was inconclusive [cytotoxic, partial curve, poor fit]. With `N#Cc1nc(Cc2cccc3ccccc23)oc1NCc1ccc(F)cc1` the Potency was inconclusive [cytotoxic, partial curve]. For `Cc1ccc(NC(=O)c2ccc(NC(=O)C3CCCC3)cc2)c(C)c1`, the Potency was “inactive”. In the case of `O=C(COc1ccccc1[N+](=O)[O-])c1ccccc1`, the Potency was inconclusive [cytotoxic, single point]. For `Cc1ccc(-n2nnnc2SCC(=O)c2cc(C)n(-c3cc(C)on3)c2C)c(C)c1`, the activity, negative = less viability was inconclusive: -31.8% [cytotoxic]. With `OC(CN1CCN(c2cccc(Cl)c2)CC1)C(c1ccccc1)c1ccccc1` (stereo not drawn) the Potency was inconclusive [cytotoxic, single point]. For `OC(c1ccccc1)(C1CCCCC1)C(CN1CCOCC1)c1ccccc1` (stereo not drawn), the Potency was inconclusive [cytotoxic, single point]. With `CCc1ccc(C(=O)Nc2cccc(-c3nn[nH]n3)c2)s1` the Potency was inconclusive [rising, single point]. For `Cc1sc(N)nc1-c1c(C)n(C)c2ccccc12`, the Potency was “inactive”. With `CCN(Cc1ccccc1)S(=O)(=O)c1ccc(C(=O)N(CCCN(C)C)c2nc3cc(OC)ccc3s2)cc1` the Potency was inconclusive [cytotoxic, single point]. For `Cc1ccc(-c2nc(COC(=O)c3c(C)noc3C)cs2)cc1`, the Potency was inconclusive [cytotoxic, partial curve]. In the case of `COc1ccc(C(=O)Nc2nnc(C3=COCCO3)o2)cc1`, the Potency was “inactive”. In the case of `O=c1cc(CSc2nnc(Nc3ccccc3)s2)nc2sccn12`, the Potency was inconclusive [cytotoxic, partial curve]. With `CC(=O)c1coc2c1cc(O)c1ccccc12` the Potency was “inactive”. For `Cc1ccc(-c2cc(-c3ccccc3Cl)[nH]n2)c(O)c1`, the Potency was inconclusive [cytotoxic, single point]. For `CCn1nc(NS(=O)(=O)c2ccc([N+](=O)[O-])cc2)c2cc3cccc(C)c3nc21`, the Potency was inconclusive [cytotoxic, single point]. For `COc1cccc(NC(=O)c2ncc(Cl)c(Cl)c2Cl)c1`, the Potency was inconclusive [cytotoxic, single point]. For `CCOC(=O)C1CCCN(C(=O)c2cc3c(-c4cccc(OC)c4)nn(C)c3s2)C1` (stereo not drawn), the Potency was inconclusive [cytotoxic, single point]. In the case of `COCCNC(=O)/C(C#N)=C/c1c(N2CCN(c3cccc(Cl)c3)CC2)nc2c(C)cccn2c1=O`, the Potency was inconclusive [cytotoxic, single point]. In the case of `COc1ccc(Nc2nc(-c3sc(C)nc3C)cs2)cc1`, the Potency was active: 5.17 µM. With `O=C1CCC(C(=O)NCc2ccccc2)N1` (stereo not drawn) the Potency was “inactive”. For `O=C(Nc1ccc(Cl)c(Cl)c1)C1=Cc2ccccc2OC1`, the Potency was inconclusive [cytotoxic, single point]. In the case of `Cc1ccc2c(-c3ccc([N+](=O)[O-])cc3)cc(=O)[nH]c2c1`, the activity, negative = less viability was inconclusive: -9% [cytotoxic]. In the case of `Cc1nnc(NC(=O)CSc2nccn2-c2cccc(C)c2C)s1`, the Potency was inconclusive [cytotoxic, partial curve]. In the case of `CC(=O)OCCNc1cc(SC(C)C)c2nonc2c1[N+](=O)[O-]`, the Potency was “inactive”. With `CCc1nc2c(OCc3ccc(Cl)cc3Cl)cccn2c1N(C)C(=O)C(C)C` the Potency was active: 16.4 µM. With `CCCCS(=O)(=O)Nc1ccc2c(c1)ncn2C1CCCCC1` the Potency was “inactive”. With `O=C(Cn1ncc(Cl)c(Cl)c1=O)c1ccc2c(c1)OCCO2` the Potency was inconclusive [cytotoxic, single point]. For `CCCCC(CC)C(=O)Nc1ncc([N+](=O)[O-])s1` (stereo not drawn), the Potency was inconclusive [cytotoxic, single point]. With `CCN(CC)c1ccc(/C=N/Nc2nc3ccccc3[nH]2)cc1` the Potency was inconclusive [cytotoxic, partial curve]. For `Cc1ccc(NS(=O)(=O)c2cc(NC(=O)c3ccc4c(c3)NC(=O)CS4)ccc2C)c(C)c1`, the Potency was inconclusive [cytotoxic, single point]. For `CC/C(=C(/CC)c1ccc(O)cc1)c1ccc(O)cc1`, the Potency was inconclusive [cytotoxic, single point]. In the case of `Cc1cccc(OCCN2CSC(=S)N(C)C2)c1`, the Potency was active: 18.4 µM. For `COc1cc2c3c(cccc3c1)C(=O)N(CCN1CCCC1)C2=O`, the Potency was active: 13 µM. For `CCN(CC)C(=O)CNC(=S)N(CCCN1CCOCC1)Cc1cccs1`, the Potency was “inactive”. With `CCCn1c(=O)[nH]c(=O)c2c(C(=O)OCC)cc(-c3cccs3)nc21` the Potency was inconclusive [cytotoxic, single point].
